Measured values taken from the supplement of paper PMC3334620.
The full ranking holds about 33,000 sequences; the median of “E-score (-0.5 to 0.5)” is about -0.043, and the highest 2% start at about 0.37. Some of the results follow.

biological target: T1, Upc2 (UniProt Q12151); test: PBM E-score (8-mer binding enrichment) (E-score (-0.5 to 0.5)); higher = stronger / more preferred TF binding; most listed sequences are background and not binding sites; conditions: protein concentration: 200 nM; construct: GST-full length
T1 sequence: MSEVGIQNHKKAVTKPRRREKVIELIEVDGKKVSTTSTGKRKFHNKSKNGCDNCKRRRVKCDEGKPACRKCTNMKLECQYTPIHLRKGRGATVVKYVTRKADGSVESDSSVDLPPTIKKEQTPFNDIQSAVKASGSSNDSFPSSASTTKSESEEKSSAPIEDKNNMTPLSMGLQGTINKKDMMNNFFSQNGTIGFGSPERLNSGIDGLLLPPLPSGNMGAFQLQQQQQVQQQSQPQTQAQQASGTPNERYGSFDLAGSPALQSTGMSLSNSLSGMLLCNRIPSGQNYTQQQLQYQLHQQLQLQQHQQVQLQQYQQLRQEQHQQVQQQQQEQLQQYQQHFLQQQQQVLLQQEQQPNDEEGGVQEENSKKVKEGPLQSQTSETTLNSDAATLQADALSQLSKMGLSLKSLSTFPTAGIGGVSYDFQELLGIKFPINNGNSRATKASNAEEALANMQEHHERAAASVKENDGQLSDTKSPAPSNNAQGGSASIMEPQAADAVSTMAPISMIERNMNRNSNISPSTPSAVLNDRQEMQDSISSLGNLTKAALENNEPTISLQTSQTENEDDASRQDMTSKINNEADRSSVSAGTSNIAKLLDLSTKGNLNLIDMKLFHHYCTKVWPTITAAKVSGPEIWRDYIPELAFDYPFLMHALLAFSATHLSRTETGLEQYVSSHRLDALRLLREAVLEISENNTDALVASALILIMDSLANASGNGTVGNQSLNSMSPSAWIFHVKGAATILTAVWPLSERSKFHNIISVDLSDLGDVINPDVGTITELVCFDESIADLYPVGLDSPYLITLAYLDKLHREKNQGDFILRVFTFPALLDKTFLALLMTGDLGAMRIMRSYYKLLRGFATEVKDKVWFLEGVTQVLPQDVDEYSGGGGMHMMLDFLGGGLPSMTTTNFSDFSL
Description: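 Universal 'all 10-mer' protein binding microarrays (Agilent AMADID 015681) probed with GST-tagged S. cerevisiae TFs (full-length or DBD) made by in vitro transcription/translation (PURExpress), about 100-200 nM. Bound TF was detected with fluorescent anti-GST. Each ungapped 8-mer (which stands for itself and its reverse complement) is scored by the PBM enrichment score (E-score), a modified Wilcoxon-Mann-Whitney statistic from -0.5 to +0.5, computed with the Universal PBM Analysis Suite. Scale: above 0.35 generally sequence-specific binding.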

Row | Sequence | PBM E-score
1 | TATTCGAA | 0.221
2 | GTACGCAC | 0.322
3 | GAGTCCAA | -0.186
4 | CCATCGTC | -0.0745
5 | CACTGGTA | -0.0389
6 | GGTACACC | 0.0641
7 | AATAGAAT | -0.00962
8 | ATCACTAG | -0.078
9 | AGCAGGCT | -0.287
10 | CCAGAACG | 0.275
11 | ACCGGTCA | 0.0537
12 | ATCGCCCG | 0.0502
13 | CTTACATC | 0.0953
14 | GAGACGGA | -0.233
15 | TACCGTGA | -0.035
16 | ACTGTCAA | -0.0815
17 | CTTGAGTC | -0.0451
18 | ATAGAGCG | -0.0755
19 | ATGGTGCA | -0.0485
20 | CTGACTTA | -0.0443
21 | ACTTCTCT | -0.035
22 | AATTGCCC | -0.148
23 | ACGTTTTG | -0.0436
24 | CGCGGTTA | -0.0473
25 | GGCGAGCA | -0.0402

Row | Sequence | PBM E-score
26 | GTCTAAAA | 0.0594
27 | CCGGTGAG | -0.221
28 | GGATTGCA | -0.224
29 | AAAGGTGA | -0.0702
30 | GGGAGATA | -0.196
31 | CCGATCGC | 0.0725
32 | AGAGAATC | -0.188
33 | CGAACACA | 0.168
34 | TCATCGAA | -0.0529
35 | AGTATGAT | -0.0278
36 | GCCCGCGC | -0.155
37 | AATCGTCA | 0.0304
38 | CAGGCAGG | -0.187
39 | ACCGTAGG | -0.135
40 | CACCCCTG | -0.408
41 | AATCGTGA | -0.165
42 | CGGCGACG | -0.0206
43 | CGCGTTAA | 0.218
44 | CCTATCCG | 0.165
45 | AGAAAAGG | -0.259
46 | GATGATAC | 0.0998
47 | TACATACA | 0.162
48 | ATAAACGG | 0.434
49 | GCTAATAA | 0.16
50 | CACGTCGG | 0.129

Row | Sequence | PBM E-score
51 | CAATCGGA | -0.0741
52 | CCTGTACG | 0.436
53 | AGTGTCGG | -0.0914
54 | ATAAAAGC | -0.0242
55 | AGTGGTTC | -0.0177
56 | TTACCAAA | -0.0507
57 | GATGAGGC | -0.277
58 | ACGTCAGT | -0.0862
59 | GACGTATA | 0.424
60 | CACGCCAA | -0.00227
61 | AGGGTCAA | -0.0702
62 | CCAGCAGC | -0.28
63 | ATAAGTTA | 0.0405
64 | GGTAATAC | 0.0537
65 | AGCCCTTA | -0.0389
66 | GTCGTAAC | 0.408
67 | ACCGATAA | 0.158
68 | GAAGCGCA | 0.0636
69 | GCCTCTAC | -0.162
70 | CCTTGCCA | -0.151
71 | ATACTAAG | 0.00764
72 | GAATTCCC | -0.0191
73 | CCGAGAAA | 0.188
74 | ATGCTGCC | -0.137
75 | ACTAGCAG | -0.0997

Row | Sequence | PBM E-score
76 | CTGTAGTC | 0.0304
77 | AGCTCTAC | -0.187
78 | CGCGTGCA | -0.144
79 | CGAATCAA | 0.146
80 | CTCAGTCC | -0.119
81 | CAACCATA | -0.025
82 | ATGCATAG | -0.199
83 | CGCTAAGA | 0.226
84 | GCGTAAGC | 0.195
85 | CCGTGTAG | 0.0505
86 | CAGCTATA | 0.0617
87 | ATCGGCCA | -0.112
88 | ACCAGCCA | -0.25
89 | CACGTACC | 0.188
90 | GACGACGC | 0.0643
91 | CGTGTCAC | 0.0221
92 | CCTTATTA | 0.00112
93 | AAGGCATT | -0.274
94 | AAAGGTGT | 0.0174
95 | CAGGACTC | -0.0969
96 | CCCCAGAG | -0.261
97 | ACCCACTC | -0.193
98 | AATTGACT | -0.161
99 | AGCGGTCG | -0.0043
100 | ATGTTCTA | 0.00632

Row | Sequence | PBM E-score
101 | AAACTTGC | 0.117
102 | ACCTCCCA | -0.176
103 | ATACGTCA | 0.278
104 | AGAGCAGC | -0.163
105 | TCCATTCA | -0.0632
106 | CAACTCGG | -0.112
107 | GACTGACC | -0.0564
108 | ACCCACAA | -0.045
109 | CAAGTTTC | 0.0271
110 | ACCATGCT | 0.0936
111 | CTAGCTGC | -0.235
112 | GACCAATA | -0.0983
113 | AGTGCCAT | -0.133
114 | GCACTAGC | -0.0308
115 | CCGCCCTC | -0.0106
116 | GGCTGCTA | -0.0267
117 | CCGTCGGA | 0.0146
118 | AGTCCGAA | -0.0353
119 | ATAGTTGG | -0.011
120 | CCCAAGGG | -0.25
121 | GTGACGAA | -0.0408
122 | ACCGGGAC | -0.198
123 | AATAAGAG | 0.0887
124 | AGGAGTAC | 0.0231
125 | AATTTTAT | -0.038

Row | Sequence | PBM E-score
126 | CACCATTC | -0.231
127 | ACCAATGA | -0.106
128 | ATTCAAAC | 0.0935
129 | ACGGGAGA | 0.0541
130 | ACAGGTTA | -0.066
131 | CCCAACCA | 0.0293
132 | AGTAGTCG | 0.198
133 | TGCGTAAA | 0.294
134 | TATGCTCA | -0.123
135 | ATGTCCAA | -0.0286
136 | CCTTGCAA | -0.115
137 | GCTGTGAA | -0.0401
138 | AGCCCCAG | -0.129
139 | AATGAGCA | -0.149
140 | GCGAAGAC | -0.0814
141 | CGTTCTTC | 0.225
142 | GAAAACCC | -0.0313
143 | GTTCACCA | 0.101
144 | AATTCATC | -0.0871
145 | GCCGAAGC | -0.115
146 | AGGTGCCG | -0.137
147 | CCGTAGAG | 0.216
148 | CGCTAAAC | 0.345
149 | CAGTAAGC | -0.103
150 | ATGCCCAG | -0.329

Row | Sequence | PBM E-score
151 | CGGGCATC | 0.0742
152 | GATAATAA | -0.00643
153 | CGGAAGTA | 0.0369
154 | CCCCACCG | 0.0968
155 | GATATTGC | 0.00035
156 | AGTTCGTG | 0.158
157 | CGTTGCTA | 0.0827
158 | CTTAACGA | 0.464
159 | CGTGTTGA | -0.027
160 | AGCTATCG | 0.0416
161 | CCAGCCAA | -0.107
162 | AGCTCACT | -0.138
163 | GTCAGGCA | -0.192
164 | ACAAAGAG | -0.214
165 | CAGTCGGC | -0.152
166 | ATCTACGG | -0.0234
167 | CGGATACG | 0.408
168 | CGCGGCAA | 0.0872
169 | CCTCGTAG | 0.389
170 | GTACTTGA | 0.0766
171 | ACTACATG | -0.0312
172 | ATTTCATA | 0.00209
